Reference: the supplement of paper PMC10369915
The list shows a part of the results. Rule as the data show it: active = 3.2 or more and inactive = the rest. Only a few entries rise above the background.

target: SHP2 C-SH2 domain E139D; test: enrichment score (SH2-bound / input frequency) (ratio); bacterial display of known human phosphotyrosine sites (pTyr-Var adds point mutants) read by sequencing; higher = stronger binding; tyrosines were phosphorylated by kinases first; details: peptide library: pTyr-Var
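Also: displayed peptides selected on beads carrying the immobilized SH2 domain, with library peptides lacking any tyrosine serving as negative controls.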

Enrichment score, inactive:
LGGAMYFLEAD [PKHD1_Y452_E457D_YF] 1.22
GGPAGYLRRAS [PKLR_Y38] 0.322
GGPAEYLRRAS [PKLR_Y38_G37E] 0.68
GGPAGYLWRAS [PKLR_Y38_R40W] 0.969
RPGSGYTNIMQ [PKLR_Y564_R569Q] 0.753
EDGRLYAVKCS [PKMYT1_Y136_R140C] 0.743
SEPDLYYDPRG [PKP1_Y160_C161Y] 0.672
PVPKTYDMLNA [PKP2_Y108_K112N] 0.542
YTHSDYQYGQR [PKP2_Y166_S169G] 0.813
FTHSDYQFGQR [PKP2_Y166_S169G_YF] 0.662
LHNLFYQLEAE [PKP2_Y616_S615F] 1.63
KVKEQYQDVPM [PKP2_Y659] 0.533
QVKEQYQDVPM [PKP2_Y659_K654Q] 0.65
LNLDTYQKRLR [PLA2G2D_Y126_R121L] 0.652
QGCSIYKDYYR [PLA2G2D_Y82] 1.15
QGCGIYKDFFR [PLA2G2D_Y82_S80G_YF] 2.47
GIFKDYFRFNF [PLA2G2D_Y85_S80G_YF] 2.1
YMRGMYFRMKD [PLA2G6_Y541] 1.4
NGRQCYSCKGN [PLAUR_Y217] 1.61

target: SHP2 C-SH2 domain wild-type; test: as above; details: peptide library: pTyr-Var

Enrichment score, inactive:
LGGAMYFLEAD [PKHD1_Y452_E457D_YF] 1.1
GGPAGYLRRAS [PKLR_Y38] 0.198
GGPAEYLRRAS [PKLR_Y38_G37E] 0.737
GGPAGYLWRAS [PKLR_Y38_R40W] 0.726
RPGSGYTNIMQ [PKLR_Y564_R569Q] 1.13
EDGRLYAVKCS [PKMYT1_Y136_R140C] 0.818
SEPDLYYDPRG [PKP1_Y160_C161Y] 0.65
PVPKTYDMLNA [PKP2_Y108_K112N] 0.843
YTHSDYQYGQR [PKP2_Y166_S169G] 0.53
FTHSDYQFGQR [PKP2_Y166_S169G_YF] 0.729
LHNLFYQLEAE [PKP2_Y616_S615F] 1.5
KVKEQYQDVPM [PKP2_Y659] 0.579
QVKEQYQDVPM [PKP2_Y659_K654Q] 0.542
LNLDTYQKRLR [PLA2G2D_Y126_R121L] 0.598
QGCSIYKDYYR [PLA2G2D_Y82] 0.822
QGCGIYKDFFR [PLA2G2D_Y82_S80G_YF] 1.73
GIFKDYFRFNF [PLA2G2D_Y85_S80G_YF] 2.35
YMRGMYFRMKD [PLA2G6_Y541] 0.992
NGRQCYSCKGN [PLAUR_Y217] 1.35

target: SHP2 N-SH2 domain L43F; test: as above; details: peptide library: pTyr-Var

Enrichment score, inactive:
LGGAMYFLEAD [PKHD1_Y452_E457D_YF] 0.994
GGPAGYLRRAS [PKLR_Y38] 0.261
GGPAEYLRRAS [PKLR_Y38_G37E] 0.7
GGPAGYLWRAS [PKLR_Y38_R40W] 0.957
RPGSGYTNIMQ [PKLR_Y564_R569Q] 0.713
EDGRLYAVKCS [PKMYT1_Y136_R140C] 0.614
SEPDLYYDPRG [PKP1_Y160_C161Y] 0.695
PVPKTYDMLNA [PKP2_Y108_K112N] 0.985
YTHSDYQYGQR [PKP2_Y166_S169G] 0.431
FTHSDYQFGQR [PKP2_Y166_S169G_YF] 0.729
LHNLFYQLEAE [PKP2_Y616_S615F] 1.42
KVKEQYQDVPM [PKP2_Y659] 0.566
QVKEQYQDVPM [PKP2_Y659_K654Q] 0.702
LNLDTYQKRLR [PLA2G2D_Y126_R121L] 0.483
QGCSIYKDYYR [PLA2G2D_Y82] 0.847
QGCGIYKDFFR [PLA2G2D_Y82_S80G_YF] 1.51
GIFKDYFRFNF [PLA2G2D_Y85_S80G_YF] 2.38
YMRGMYFRMKD [PLA2G6_Y541] 0.961
NGRQCYSCKGN [PLAUR_Y217] 1.48

target: SHP2 N-SH2 domain T42A; test: as above; details: peptide library: pTyr-Var

Enrichment score, inactive:
LGGAMYFLEAD [PKHD1_Y452_E457D_YF] 1.21
GGPAGYLRRAS [PKLR_Y38] 0.442
GGPAEYLRRAS [PKLR_Y38_G37E] 0.624
GGPAGYLWRAS [PKLR_Y38_R40W] 0.792
RPGSGYTNIMQ [PKLR_Y564_R569Q] 0.714
EDGRLYAVKCS [PKMYT1_Y136_R140C] 0.615
SEPDLYYDPRG [PKP1_Y160_C161Y] 0.429
PVPKTYDMLNA [PKP2_Y108_K112N] 0.713
YTHSDYQYGQR [PKP2_Y166_S169G] 0.411
FTHSDYQFGQR [PKP2_Y166_S169G_YF] 0.569
LHNLFYQLEAE [PKP2_Y616_S615F] 1.58
KVKEQYQDVPM [PKP2_Y659] 0.529
QVKEQYQDVPM [PKP2_Y659_K654Q] 0.705
LNLDTYQKRLR [PLA2G2D_Y126_R121L] 0.422
QGCSIYKDYYR [PLA2G2D_Y82] 0.874
QGCGIYKDFFR [PLA2G2D_Y82_S80G_YF] 1.95
GIFKDYFRFNF [PLA2G2D_Y85_S80G_YF] 2.19
YMRGMYFRMKD [PLA2G6_Y541] 1
NGRQCYSCKGN [PLAUR_Y217] 1.39

target: SHP2 N-SH2 domain T52S; test: as above; details: peptide library: pTyr-Var

Enrichment score, inactive:
LGGAMYFLEAD [PKHD1_Y452_E457D_YF] 1.11
GGPAGYLRRAS [PKLR_Y38] 0.286
GGPAEYLRRAS [PKLR_Y38_G37E] 0.572
GGPAGYLWRAS [PKLR_Y38_R40W] 0.891
RPGSGYTNIMQ [PKLR_Y564_R569Q] 0.705
EDGRLYAVKCS [PKMYT1_Y136_R140C] 0.668
SEPDLYYDPRG [PKP1_Y160_C161Y] 0.673
PVPKTYDMLNA [PKP2_Y108_K112N] 1.01
YTHSDYQYGQR [PKP2_Y166_S169G] 0.527
FTHSDYQFGQR [PKP2_Y166_S169G_YF] 0.57
LHNLFYQLEAE [PKP2_Y616_S615F] 1.45
KVKEQYQDVPM [PKP2_Y659] 0.652
QVKEQYQDVPM [PKP2_Y659_K654Q] 0.746
LNLDTYQKRLR [PLA2G2D_Y126_R121L] 0.496
QGCSIYKDYYR [PLA2G2D_Y82] 1.02
QGCGIYKDFFR [PLA2G2D_Y82_S80G_YF] 1.07
GIFKDYFRFNF [PLA2G2D_Y85_S80G_YF] 2.26
YMRGMYFRMKD [PLA2G6_Y541] 1.27
NGRQCYSCKGN [PLAUR_Y217] 1.58

target: SHP2 N-SH2 domain wild-type; test: as above; details: peptide library: pTyr-Var

Enrichment score, inactive:
LGGAMYFLEAD [PKHD1_Y452_E457D_YF] 0.952
GGPAGYLRRAS [PKLR_Y38] 0.37
GGPAEYLRRAS [PKLR_Y38_G37E] 0.812
GGPAGYLWRAS [PKLR_Y38_R40W] 1.09
RPGSGYTNIMQ [PKLR_Y564_R569Q] 0.705
EDGRLYAVKCS [PKMYT1_Y136_R140C] 0.84
SEPDLYYDPRG [PKP1_Y160_C161Y] 0.693
PVPKTYDMLNA [PKP2_Y108_K112N] 0.738
YTHSDYQYGQR [PKP2_Y166_S169G] 0.571
FTHSDYQFGQR [PKP2_Y166_S169G_YF] 0.858
LHNLFYQLEAE [PKP2_Y616_S615F] 1.3
KVKEQYQDVPM [PKP2_Y659] 0.676
QVKEQYQDVPM [PKP2_Y659_K654Q] 0.597
LNLDTYQKRLR [PLA2G2D_Y126_R121L] 0.588
QGCSIYKDYYR [PLA2G2D_Y82] 1.26
QGCGIYKDFFR [PLA2G2D_Y82_S80G_YF] 2.16
GIFKDYFRFNF [PLA2G2D_Y85_S80G_YF] 2.63
YMRGMYFRMKD [PLA2G6_Y541] 1.02
NGRQCYSCKGN [PLAUR_Y217] 1.55
